This note sets out measurements from paper PMC8254046.

Sequences of proteins named here, by UniProt entry; tags and fusion partners are left off.
UniProt P35240: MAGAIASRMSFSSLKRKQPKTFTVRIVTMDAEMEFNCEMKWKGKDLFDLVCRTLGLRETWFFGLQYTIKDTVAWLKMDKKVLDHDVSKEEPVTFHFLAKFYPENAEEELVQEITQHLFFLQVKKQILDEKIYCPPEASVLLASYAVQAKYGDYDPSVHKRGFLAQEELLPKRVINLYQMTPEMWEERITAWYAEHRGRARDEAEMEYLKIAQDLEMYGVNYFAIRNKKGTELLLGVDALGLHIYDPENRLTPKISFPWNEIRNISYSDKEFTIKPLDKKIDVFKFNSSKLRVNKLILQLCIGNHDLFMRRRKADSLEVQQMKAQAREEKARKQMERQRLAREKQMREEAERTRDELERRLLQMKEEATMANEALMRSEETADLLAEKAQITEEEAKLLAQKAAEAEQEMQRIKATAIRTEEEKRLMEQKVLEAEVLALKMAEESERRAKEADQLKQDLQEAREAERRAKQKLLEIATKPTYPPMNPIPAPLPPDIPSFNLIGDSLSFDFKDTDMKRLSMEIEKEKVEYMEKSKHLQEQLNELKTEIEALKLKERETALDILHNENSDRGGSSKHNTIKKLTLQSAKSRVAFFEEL
UniProt P46937: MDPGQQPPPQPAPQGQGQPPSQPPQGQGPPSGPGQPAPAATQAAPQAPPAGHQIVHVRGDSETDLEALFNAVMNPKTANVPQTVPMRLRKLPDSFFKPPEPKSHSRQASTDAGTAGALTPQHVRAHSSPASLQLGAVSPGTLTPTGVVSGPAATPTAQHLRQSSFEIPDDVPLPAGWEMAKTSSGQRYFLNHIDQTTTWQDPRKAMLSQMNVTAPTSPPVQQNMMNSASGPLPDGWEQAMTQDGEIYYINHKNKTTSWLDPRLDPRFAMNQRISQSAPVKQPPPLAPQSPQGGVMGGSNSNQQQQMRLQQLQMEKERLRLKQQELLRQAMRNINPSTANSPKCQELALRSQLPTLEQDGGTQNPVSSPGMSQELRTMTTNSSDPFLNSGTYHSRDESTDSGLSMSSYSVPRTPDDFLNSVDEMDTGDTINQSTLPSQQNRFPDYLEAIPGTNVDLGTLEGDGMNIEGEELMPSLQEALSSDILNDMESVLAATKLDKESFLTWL
UniProt P62491: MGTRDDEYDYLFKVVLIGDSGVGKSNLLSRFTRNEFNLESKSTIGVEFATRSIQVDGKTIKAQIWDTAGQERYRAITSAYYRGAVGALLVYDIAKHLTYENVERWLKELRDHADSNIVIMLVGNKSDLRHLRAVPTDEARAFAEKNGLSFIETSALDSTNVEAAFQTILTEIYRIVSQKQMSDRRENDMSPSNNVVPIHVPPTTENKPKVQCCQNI
UniProt Q9Y2J4: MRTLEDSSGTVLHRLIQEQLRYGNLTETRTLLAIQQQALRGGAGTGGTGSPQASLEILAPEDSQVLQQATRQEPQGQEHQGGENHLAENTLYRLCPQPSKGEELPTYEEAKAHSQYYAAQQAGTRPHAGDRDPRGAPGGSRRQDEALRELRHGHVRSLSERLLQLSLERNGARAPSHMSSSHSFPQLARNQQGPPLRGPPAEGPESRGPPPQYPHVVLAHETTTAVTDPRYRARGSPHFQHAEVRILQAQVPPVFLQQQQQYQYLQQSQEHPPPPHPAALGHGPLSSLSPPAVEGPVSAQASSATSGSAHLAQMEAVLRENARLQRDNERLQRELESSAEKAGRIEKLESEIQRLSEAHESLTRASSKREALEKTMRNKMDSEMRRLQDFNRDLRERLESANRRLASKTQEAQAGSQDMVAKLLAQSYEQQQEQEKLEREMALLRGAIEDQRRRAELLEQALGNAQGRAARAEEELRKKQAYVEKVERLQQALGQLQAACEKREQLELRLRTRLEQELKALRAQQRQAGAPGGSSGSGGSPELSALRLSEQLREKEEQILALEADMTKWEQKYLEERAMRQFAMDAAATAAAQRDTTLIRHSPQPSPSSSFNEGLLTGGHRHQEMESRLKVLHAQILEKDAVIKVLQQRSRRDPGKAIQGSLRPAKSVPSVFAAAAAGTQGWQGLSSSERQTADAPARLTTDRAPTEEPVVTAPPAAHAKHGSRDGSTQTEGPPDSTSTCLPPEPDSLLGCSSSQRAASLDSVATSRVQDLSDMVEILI
UniProt P35222: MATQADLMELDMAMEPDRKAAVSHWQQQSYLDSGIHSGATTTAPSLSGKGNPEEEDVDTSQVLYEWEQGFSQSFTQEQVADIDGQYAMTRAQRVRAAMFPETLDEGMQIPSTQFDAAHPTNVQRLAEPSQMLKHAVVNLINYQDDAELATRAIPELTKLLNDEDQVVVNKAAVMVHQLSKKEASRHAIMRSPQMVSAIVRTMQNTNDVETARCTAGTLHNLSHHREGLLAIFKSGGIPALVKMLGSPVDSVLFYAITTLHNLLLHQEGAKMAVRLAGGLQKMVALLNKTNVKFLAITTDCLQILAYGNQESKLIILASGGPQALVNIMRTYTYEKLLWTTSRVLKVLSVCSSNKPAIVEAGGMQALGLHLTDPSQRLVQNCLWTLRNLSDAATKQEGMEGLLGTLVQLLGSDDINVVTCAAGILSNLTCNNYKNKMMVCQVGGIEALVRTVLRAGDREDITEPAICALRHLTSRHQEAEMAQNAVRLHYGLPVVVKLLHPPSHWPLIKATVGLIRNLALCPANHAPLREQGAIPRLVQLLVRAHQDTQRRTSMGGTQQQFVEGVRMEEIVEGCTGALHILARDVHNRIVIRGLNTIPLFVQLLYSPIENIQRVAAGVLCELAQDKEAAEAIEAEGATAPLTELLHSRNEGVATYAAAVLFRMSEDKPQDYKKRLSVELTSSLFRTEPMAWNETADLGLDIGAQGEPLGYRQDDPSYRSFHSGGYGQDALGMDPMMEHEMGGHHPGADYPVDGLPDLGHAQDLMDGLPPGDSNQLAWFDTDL

These are yes or no findings as the source states them, for the method shown. In cells and extracts the contact can be indirect. Some binding calls cover weakened binding; strength is not graded here.

Assay [1] deals with Merlin (human (endogenous in Caco-2)) (UniProt P35240). Nature of the assay: co-IP; immunoprecipitation and immunoblotting between AMOTL-2 and Merlin in control and RAB11A-KD Caco-2 cells; the precipitating antibody is not told.
Assay [2] deals with Yes-associated protein (YAP) (human (endogenous in Caco-2)) (UniProt P46937). The assay is described as follows: co-IP; lysates of control Caco-2 cells (also RAB11A-KD and Merlin-KD cells) precipitated with anti-YAP antibodies on Protein G-agarose, 6 h at 4 °C; blotted for the partners.
The target is the same in assay [3]. The assay is described as follows: co-IP; lysates of Merlin-KD Caco-2 cells precipitated with anti-YAP antibodies; blotted for RAB11A.
The target of assay [4] is RAB11A (human (endogenous in Caco-2)) (UniProt P62491). The assay is described as follows: co-IP; total lysates of control and RAB11A-KD Caco-2 cells precipitated with anti-RAB11A antibody on Protein G-agarose, 6 h at 4 °C; blotted for YAP.
In assay [5] the target is Merlin (human (endogenous in Caco-2)) (UniProt P35240). Nature of the assay: co-IP; lysates of control and RAB11A-KD Caco-2 cells precipitated with anti-Merlin antibodies on Protein G-agarose, 6 h at 4 °C; blotted for the partners.
The target of a further assay is Flag-wildtype RAB11A (UniProt P62491). Nature of the assay: co-IP; lysates of HEK293 cells transfected with Flag-RAB11A (wildtype or dominant-negative) and HA-Merlin, precipitated on anti-FLAG affinity gel; HA-Merlin detected.

As to “AMOTL-2 (angiomotin-like protein 2) (from UniProt Q9Y2J4 1-779)”, the binding result in assay [1] and in assay [2] was “binds” each time.
With Merlin (from UniProt P35240 1-595), the binding result in assay [2] is “binds”.
For RAB11A (from UniProt P62491 1-216), the binding entry in assay [3] was “no binding (condition: Merlin-KD Caco-2 cells)”; in assay [2], “binds”.
For “YAP phosphorylated on S127 (from UniProt P46937 1-504)”, the binding entry in assay [4] is “binds”.
For “Yes-associated protein (YAP) (from UniProt P46937 1-504)”, the binding result in assay [5] and in assay [4] was “binds” each time.
For the substance “hemagglutinin (HA)-tagged Merlin (from UniProt P35240 1-595)”, the binding result in the assay with Flag-wildtype RAB11A is “binds”.
Consider β-catenin (from UniProt P35222 1-781), for which, in assay [5], the binding result was “binds”.
